Laboratory results from PubChem BioAssay AID1671188 (National Center for Advancing Translational Sciences (NCATS), 2021).
Out of some 100,000 compounds screened, about 250 (0.25%) were called active. The inconclusive results got no clear call from the source; some entries with a clear call stand among them for comparison. Calls come from the whole dose curve; as a rule, active = well fitted inhibition curve with a large enough effect; inconclusive = small, poorly fitted or top-dose-only effect; inactive = flat fitted curve, though single readings scatter. No potency is given beside an inconclusive call; the fits are too rough.
Note: nearly all actives have a fitted effect of over 60% in size.
Potency is the fitted concentration of half-maximal effect; tags give direction and shape of the fitted curve.

What follows are compounds tested against Alanine aminotransferase 2 (Homo sapiens) (UniProt Q8TD30) (assay: Primary qHTS assay for inhibitors of Glutamate pyruvate transaminase 2 (GPT2)). Details: Recombinant GPT2, coupled pyruvate oxidase/HRP Amplex Red fluorescence; series mostly up to 57.7 µM.
Sequence of UniProt Q8TD30 (Q8TD30 whole entry, looked up): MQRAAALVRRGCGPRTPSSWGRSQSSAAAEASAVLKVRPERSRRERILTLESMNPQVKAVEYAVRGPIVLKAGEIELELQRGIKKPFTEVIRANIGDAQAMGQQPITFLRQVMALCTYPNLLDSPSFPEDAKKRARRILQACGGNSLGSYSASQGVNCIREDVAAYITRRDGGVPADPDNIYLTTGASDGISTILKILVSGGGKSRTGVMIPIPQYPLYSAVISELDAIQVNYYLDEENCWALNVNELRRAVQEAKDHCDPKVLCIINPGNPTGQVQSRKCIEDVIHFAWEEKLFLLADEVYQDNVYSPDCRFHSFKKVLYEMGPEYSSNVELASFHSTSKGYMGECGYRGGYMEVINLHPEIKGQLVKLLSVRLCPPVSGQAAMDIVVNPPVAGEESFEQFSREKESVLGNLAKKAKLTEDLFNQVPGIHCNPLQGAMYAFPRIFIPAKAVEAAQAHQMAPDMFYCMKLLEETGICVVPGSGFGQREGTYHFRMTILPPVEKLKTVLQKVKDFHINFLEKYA
Method in brief: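 Fluorescence of coupled pyruvate oxidase/HRP/Amplex Red system (50uM Amplex, 30 min, dark) reports pyruvate formed by GPT2. Enzyme reaction: 10ng/uL GPT2, 2mM L-alanine, 250uM a-KG, 30 min room temperature, pH 7.5; 50uM AOA control.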
With `COc1ccc(Cl)cc1C(=O)N1CCC2(CC1)NC(=O)N(c1cccc(F)c1)N2` the Potency was inconclusive [inhibitor, single point].
In the case of `O=C(NC1CCN(c2cc(-c3ccc(F)cc3)[nH]n2)C1)c1ccc(F)cc1Cl` (stereo not drawn), the Potency is reported as inconclusive [inhibitor, single point].
With `CC(C)N1CCN(C2CCN(c3ccc4c(c3)OCO4)CC2)CC1CCO` (stereo not drawn) the Potency was inconclusive [inhibitor, single point].
In the case of `Cc1ccc(NC(=O)c2ccc(N3CC4CC(C3)[C@H]3CCCC(=O)N3C4)nc2)c(C)c1` (stereo partly drawn), the Potency is reported as inconclusive [inhibitor, single point].
With `N#Cc1ccc2nc([C@H]3CCN(Cc4ccccc4)C3)[nH]c2c1` the Potency was “inactive”.
In the case of `O=C(c1ccccc1Cl)N1CCC(n2cc(-c3nc(-c4ccccc4)no3)nn2)CC1`, the Potency is reported as “inactive”.
`Cc1ccc(-c2nnc(C3CN(C(=O)c4cccs4)CC34CCOCC4)o2)cc1` (stereo not drawn) was tested, and the Potency was inconclusive [inhibitor, single point].
For `Cc1[nH]c(=O)c(C#N)cc1-c1ccncc1`, the Potency was inconclusive [inhibitor, single point].
For `Cc1noc(C)c1CN1CCc2nc(C(=O)Nc3ccccc3)oc2CC1`, the Potency was “inactive”.
With `Cc1noc(C)c1CCC(=O)N1Cc2[nH]cnc2CC1C(=O)O` (stereo not drawn) the Potency was inconclusive [inhibitor, full curve, poor fit].
For `CC(C)[C@]1(O)CN(C(=O)Cn2[nH]c3ccccc3c2=O)C[C@H]1C`, the Potency was inconclusive [inhibitor, partial curve, poor fit].
In the case of `CC[C@H]1CN2CCc3cc(OC)c(OC)cc3[C@H]2C[C@@H]1C[C@@H]1NCCc2cc(OC)c(OC)cc21`, the Potency is reported as “inactive”.
For `Cc1cc(C(=O)NCc2cccs2)c2c(C3CCCN3)noc2n1` (stereo not drawn), the Potency was inconclusive [inhibitor, partial curve].
With `O=C(N[C@H]1CCN2C(=O)c3cc(-c4ccc(Cl)cc4)ccc3NC(=O)[C@H]12)c1cnccn1` the Potency was inconclusive [inhibitor, partial curve, poor fit].
In the case of `Cn1cccc1CN1CCC2(C1)C(=NC1CCCCC1)NC(=O)N2c1cccnc1` (stereo not drawn), the Potency is reported as inconclusive [inhibitor, single point].
In the case of `Cc1nn(CCC(=O)N[C@H]2CC[C@H]2NC2CCCCC2)c(C)c1C`, the Potency is reported as “inactive”.
In the case of `Cc1ccsc1C(=O)N1CCC(n2cnnc2-c2ccccc2)C1` (stereo not drawn), the Potency is reported as inconclusive [inhibitor, partial curve, poor fit].
In the case of `O=C(NC[C@H]1Cn2c(-c3ccc(Cl)cc3)cnc2CO1)c1cccnc1`, the Potency is reported as inconclusive [inhibitor, full curve, poor fit].
